# The list shows a part of the results.
# B1: Gal 1 (Mus musculus), P16045 (protein)
# chain: MACGLVASNLNLKPGECLKVRGEVASDAKSFVLNLGKDSNNLCLHFNPRFNAHGDANTIVCNTKEDGTWGTEHREPAFPFQPGSITEVCITFDQADLTIKLPDGHEFKFPNRLNMEAINYMAADGDFKIKCVAFE
# Experiments:
# Assay in all cases: glycan array binding signal (z-score within array); higher = stronger binding
# Conditions in all cases: glycan notation: IUPAC condensed, linker removed
# Man(a1-6)Man = biological target: Man(a1-6)Man
# Method in brief: (§1)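 Glycan array binding is given as a within-array Z-score, which can be read as non-binding when negative. The arrays, 3228 of them, came from the Consortium for Functional Glycomics database and were retained only where the protein sequence was available. Z-scores were averaged across arrays of the same protein sequence at different concentrations or buffers and across linkers.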
# Man(b1-4)GlcNAc = biological target: Man(b1-4)GlcNAc
# Method in brief: as §1
# MurNAc(b1-4)GlcNAc = biological target: MurNAc(b1-4)GlcNAc
# Method in brief: as §1
# Neu5Ac(a2-3)Gal = biological target: Neu5Ac(a2-3)Gal
# Method in brief: as §1
# [1] = biological target: Neu5Ac(a2-3)Gal(b1-3)GalNAc
# Method in brief: as §1
# [2] = biological target: Neu5Ac(a2-3)Gal(b1-3)GalNAc(b1-3)Gal(a1-4)Gal(b1-4)Glc
# Method in brief: as §1
# [3] = biological target: Neu5Ac(a2-3)Gal(b1-3)GalNAc(b1-4)[Neu5Ac(a2-3)]Gal(b1-4)Glc
# Method in brief: as §1
# [4] = biological target: Neu5Ac(a2-3)Gal(b1-3)GalNAc(b1-4)[Neu5Ac(a2-8)Neu5Ac(a2-3)]Gal(b1-4)Glc
# Method in brief: as §1
# [5] = biological target: Neu5Ac(a2-3)Gal(b1-3)GalNAc6S
# Method in brief: as §1
# [6] = biological target: Neu5Ac(a2-3)Gal(b1-3)GlcNAc
# Method in brief: as §1
# [7] = biological target: Neu5Ac(a2-3)Gal(b1-3)GlcNAc(b1-2)Man
# Method in brief: as §1
# [8] = biological target: Neu5Ac(a2-3)Gal(b1-3)GlcNAc(b1-2)Man(a1-3)[GlcNAc(b1-4)][Neu5Ac(a2-3)Gal(b1-3)GlcNAc(b1-2)Man(a1-6)]Man(b1-4)GlcNAc(b1-4)GlcNAc
# Method in brief: as §1
# [9] = biological target: Neu5Ac(a2-3)Gal(b1-3)GlcNAc(b1-2)Man(a1-3)[Neu5Ac(a2-3)Gal(b1-3)GlcNAc(b1-2)Man(a1-6)]Man(b1-4)GlcNAc(b1-4)GlcNAc
# Method in brief: as §1
# [10] = biological target: Neu5Ac(a2-3)Gal(b1-3)GlcNAc(b1-3)Gal(b1-3)GlcNAc
# Method in brief: as §1
# [11] = biological target: Neu5Ac(a2-3)Gal(b1-3)GlcNAc(b1-3)Gal(b1-4)GlcNAc
# Method in brief: as §1
# [12] = biological target: Neu5Ac(a2-3)Gal(b1-3)GlcNAc(b1-3)GalNAc
# Method in brief: as §1
# [13] = biological target: Neu5Ac(a2-3)Gal(b1-3)GlcNAc(b1-4)Gal(b1-4)Glc
# Method in brief: as §1
# [14] = biological target: Neu5Ac(a2-3)Gal(b1-3)GlcNAc(b1-6)GalNAc
# Method in brief: as §1
# [15] = biological target: Neu5Ac(a2-3)Gal(b1-3)GlcNAc6S
# Method in brief: as §1
# [16] = biological target: Neu5Ac(a2-3)Gal(b1-3)[Fuc(a1-4)]GlcNAc
# Method in brief: as §1
# [17] = biological target: Neu5Ac(a2-3)Gal(b1-3)[Fuc(a1-4)]GlcNAc(b1-3)Gal(b1-3)[Fuc(a1-4)]GlcNAc
# Method in brief: as §1
# [18] = biological target: Neu5Ac(a2-3)Gal(b1-3)[Fuc(a1-4)]GlcNAc(b1-3)Gal(b1-4)[Fuc(a1-3)]GlcNAc
# Method in brief: as §1
# [19] = biological target: Neu5Ac(a2-3)Gal(b1-3)[GlcNAc(b1-6)]GalNAc
# Method in brief: as §1
# [20] = biological target: Neu5Ac(a2-3)Gal(b1-3)[Neu5Ac(a2-3)Gal(b1-4)]GlcNAc
# Method in brief: as §1
# [21] = biological target: Neu5Ac(a2-3)Gal(b1-3)[Neu5Ac(a2-6)]GalNAc
# Method in brief: as §1
# [22] = biological target: Neu5Ac(a2-3)Gal(b1-3)[Neu5Ac(a2-6)]GlcNAc(b1-3)[Fuc(a1-3)[Gal(b1-4)]GlcNAc(b1-6)]Gal(b1-4)Glc
# Method in brief: as §1
# [23] = biological target: Neu5Ac(a2-3)Gal(b1-3)]Neu5Ac(a2-3)Gal(b1-4)]GlcNAc
# Method in brief: as §1
# Neu5Ac(a2-3)Gal(b1-4)Glc = biological target: Neu5Ac(a2-3)Gal(b1-4)Glc
# Method in brief: as §1
# [24] = biological target: Neu5Ac(a2-3)Gal(b1-4)GlcNAc
# Method in brief: as §1
# [25] = biological target: Neu5Ac(a2-3)Gal(b1-4)GlcNAc(b1-2)Man
# Method in brief: as §1
# [26] = biological target: Neu5Ac(a2-3)Gal(b1-4)GlcNAc(b1-2)Man(a1-3)[GlcNAc(b1-2)Man(b1-4)GlcNAc(b1-2)Man(a1-6)]Man(b1-4)GlcNAc(b1-4)GlcNAc
# Method in brief: as §1
# [27] = biological target: Neu5Ac(a2-3)Gal(b1-4)GlcNAc(b1-2)Man(a1-3)[GlcNAc(b1-4)][Neu5Ac(a2-3)Gal(b1-4)GlcNAc(b1-2)Man(a1-6)]Man(b1-4)GlcNAc(b1-4)GlcNAc
# Method in brief: as §1
# [28] = biological target: Neu5Ac(a2-3)Gal(b1-4)GlcNAc(b1-2)Man(a1-3)[Neu5Ac(a2-3)Gal(b1-4)GlcNAc(b1-2)Man(a1-6)]Man(b1-4)GlcNAc(b1-4)GlcNAc
# Method in brief: as §1
# [29] = biological target: Neu5Ac(a2-3)Gal(b1-4)GlcNAc(b1-2)Man(a1-3)[Neu5Ac(a2-3)Gal(b1-4)GlcNAc(b1-2)Man(a1-6)]Man(b1-4)GlcNAc(b1-4)[Fuc(a1-6)]GlcNAc
# Method in brief: as §1
# [30] = biological target: Neu5Ac(a2-3)Gal(b1-4)GlcNAc(b1-2)Man(a1-3)[Neu5Ac(a2-6)Gal(b1-4)GlcNAc(b1-2)Man(a1-6)]Man(b1-4)GlcNAc(b1-4)GlcNAc
# Method in brief: as §1
# [31] = biological target: Neu5Ac(a2-3)Gal(b1-4)GlcNAc(b1-2)[Neu5Ac(a2-3)Gal(b1-4)GlcNAc(b1-4)]Man(a1-3)[GlcNAc(b1-4)][Neu5Ac(a2-3)Gal(b1-4)GlcNAc(b1-2)[Neu5Ac(a2-3)Gal(b1-4)GlcNAc(b1-6)]Man(a1-6)]Man(b1-4)GlcNAc(b1-4)GlcNAc
# Method in brief: as §1
# [32] = biological target: Neu5Ac(a2-3)Gal(b1-4)GlcNAc(b1-2)[Neu5Ac(a2-3)Gal(b1-4)GlcNAc(b1-4)]Man(a1-3)[GlcNAc(b1-4)][Neu5Ac(a2-3)Gal(b1-4)GlcNAc(b1-4)Man(a1-6)]Man(b1-4)GlcNAc(b1-4)GlcNAc
# Method in brief: as §1
# [33] = biological target: Neu5Ac(a2-3)Gal(b1-4)GlcNAc(b1-2)[Neu5Ac(a2-3)Gal(b1-4)GlcNAc(b1-6)]Man(a1-6)[Neu5Ac(a2-3)Gal(b1-4)GlcNAc(b1-2)Man(a1-3)]Man(b1-4)GlcNAc(b1-4)GlcNAc
# Method in brief: as §1
# [34] = biological target: Neu5Ac(a2-3)Gal(b1-4)GlcNAc(b1-2)[Neu5Ac(a2-3)Gal(b1-4)GlcNAc(b1-6)]Man(a1-6)[Neu5Ac(a2-3)Gal(b1-4)GlcNAc(b1-2)Man(a1-3)][GlcNAc(b1-4)]Man(b1-4)GlcNAc(b1-4)GlcNAc
# Method in brief: as §1
# [35] = biological target: Neu5Ac(a2-3)Gal(b1-4)GlcNAc(b1-3)Gal
# Method in brief: as §1
# [36] = biological target: Neu5Ac(a2-3)Gal(b1-4)GlcNAc(b1-3)Gal(b1-3)GlcNAc
# Method in brief: as §1
# [37] = biological target: Neu5Ac(a2-3)Gal(b1-4)GlcNAc(b1-3)Gal(b1-4)GlcNAc
# Method in brief: as §1
# [38] = biological target: Neu5Ac(a2-3)Gal(b1-4)GlcNAc(b1-3)Gal(b1-4)GlcNAc(b1-2)Man(a1-3)[Neu5Ac(a2-3)Gal(b1-4)GlcNAc(b1-3)Gal(b1-4)GlcNAc(b1-2)Man(a1-6)]Man(b1-4)GlcNAc(b1-4)GlcNAc
# Method in brief: as §1
# [39] = biological target: Neu5Ac(a2-3)Gal(b1-4)GlcNAc(b1-3)Gal(b1-4)GlcNAc(b1-3)Gal(b1-4)GlcNAc
# Method in brief: as §1
# [40] = biological target: Neu5Ac(a2-3)Gal(b1-4)GlcNAc(b1-3)Gal(b1-4)GlcNAc(b1-3)Gal(b1-4)GlcNAc(b1-2)Man(a1-3)[Neu5Ac(a2-3)Gal(b1-4)GlcNAc(b1-3)Gal(b1-4)GlcNAc(b1-3)Gal(b1-4)GlcNAc(b1-2)Man(a1-6)]GalNAc
# Method in brief: as §1
binder,measurement,setting,value
B1,glycan array binding signal (z-score),Man(a1-6)Man,0.23
same,glycan array binding signal (z-score),Man(b1-4)GlcNAc,-0.381
same,glycan array binding signal (z-score),MurNAc(b1-4)GlcNAc,-0.408
same,glycan array binding signal (z-score),Neu5Ac(a2-3)Gal,-0.298
same,glycan array binding signal (z-score),[1],-0.319
same,glycan array binding signal (z-score),[2],-0.091
same,glycan array binding signal (z-score),[3],-0.41
same,glycan array binding signal (z-score),[4],-0.143
same,glycan array binding signal (z-score),[5],-0.145
same,glycan array binding signal (z-score),[6],-0.215
same,glycan array binding signal (z-score),[7],0.627
same,glycan array binding signal (z-score),[8],-0.114
same,glycan array binding signal (z-score),[9],-0.124
same,glycan array binding signal (z-score),[10],0.189
same,glycan array binding signal (z-score),[11],0.036
same,glycan array binding signal (z-score),[12],0.06
same,glycan array binding signal (z-score),[13],-0.25
same,glycan array binding signal (z-score),[14],-0.225
same,glycan array binding signal (z-score),[15],-0.1
same,glycan array binding signal (z-score),[16],-0.322
same,glycan array binding signal (z-score),[17],-0.129
same,glycan array binding signal (z-score),[18],-0.174
same,glycan array binding signal (z-score),[19],-0.308
same,glycan array binding signal (z-score),[20],0.068
same,glycan array binding signal (z-score),[21],-0.244
same,glycan array binding signal (z-score),[22],-0.313
same,glycan array binding signal (z-score),[23],-0.057
same,glycan array binding signal (z-score),Neu5Ac(a2-3)Gal(b1-4)Glc,-0.219
same,glycan array binding signal (z-score),[24],-0.256
same,glycan array binding signal (z-score),[25],0.309
same,glycan array binding signal (z-score),[26],-0.069
same,glycan array binding signal (z-score),[27],0.02
same,glycan array binding signal (z-score),[28],1.51
same,glycan array binding signal (z-score),[29],0.859
same,glycan array binding signal (z-score),[30],-0.138
same,glycan array binding signal (z-score),[31],0.94
same,glycan array binding signal (z-score),[32],0.616
same,glycan array binding signal (z-score),[33],0.153
same,glycan array binding signal (z-score),[34],-0.097
same,glycan array binding signal (z-score),[35],-0.337
same,glycan array binding signal (z-score),[36],-0.268
same,glycan array binding signal (z-score),[37],-0.17
same,glycan array binding signal (z-score),[38],1.31
same,glycan array binding signal (z-score),[39],0.012
same,glycan array binding signal (z-score),[40],2.5

# — the supplement of paper PMC8728848
